# Laboratory results as given in PubChem BioAssay AID1240 (Sanford-Burnham Center for Chemical Genomics, 2008).
# Hit rate of the full screen: of about 50,000 compounds, about 800 (1.6%) showed an effect of 50% or more. Some of the results follow.
# Target: Bcl-2-like protein 10 (Homo sapiens) (UniProt Q9HD36)
# Assay: Phenotype converters, Bcl-B/TR3 peptide binding displacement, primary biochemical FP (AID 1240);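 note: 0% = Bcl-B with tracer peptide and DMSO and 100% = tracer peptide lacking Bcl-B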
# Settings: GST-Bcl-B / FITC-TR3 peptide fluorescence polarization; stronger effect = higher value; compound at 3.75 mg/L
# Sequence of UniProt Q9HD36 (Q9HD36 whole entry, looked up): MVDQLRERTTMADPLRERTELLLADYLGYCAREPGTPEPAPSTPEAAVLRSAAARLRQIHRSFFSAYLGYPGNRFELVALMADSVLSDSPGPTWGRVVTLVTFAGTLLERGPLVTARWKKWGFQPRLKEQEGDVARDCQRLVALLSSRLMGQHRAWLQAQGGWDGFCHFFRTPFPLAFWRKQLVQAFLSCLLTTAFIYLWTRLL
row,Structure (SMILES),displacement [%]
1,COc1ccc(C2(CNC(=O)CC#N)CCCC2)cc1OC,7.8
2,COc1cccc(C(=O)N2CCN(C(=O)c3cccs3)CC2)c1,-2.6
3,Cc1ccccc1C(=O)Nc1cccc(NC(=O)c2ccc(Cl)c([N+](=O)[O-])c2)c1,8
4,COc1ccc(NC(=O)c2ccccc2Cl)cc1OC,-8
5,COc1cc(OC)c(NC(=O)c2cc(C(F)(F)F)cc(C(F)(F)F)c2)cc1Cl,-11.9
6,C=CCOc1c(I)cc(/C=C2/C(=O)NC(=O)N(c3ccc(OC)cc3)C2=O)cc1OC,12.6
7,COc1ccc(CN=CC2=C(O)CNC2=O)cc1,10.9
8,Cc1ccc2nc(SCc3nc4ccccc4[nH]3)[nH]c2c1,-46.4
9,O=C(CCc1ccccc1)Nc1ccc(OCc2ccccc2)cc1,-5.3
10,Oc1ccccc1-c1cc(C(F)(F)F)[nH]n1,17.8
11,Cc1cccc(CC2S/C(=N\N=C\c3cccc([N+](=O)[O-])c3)NC2=O)c1 (stereo not given),8.5
12,Cc1cc(C)cc(N=Cc2ccc(N(C)C)cc2)c1,-7.9
13,C=CCOc1ccc(/C=C2\SC(=S)N(c3ccc(OC)cc3)C2=O)cc1OC,6.7
14,CCCN1CCC(=NNC(=O)c2ccc(OC)c(OC)c2)CC1,-3.7
15,Cc1ccc(C(=O)Nc2ncccn2)o1,6.3
16,CC(C)CNC(=O)c1cccc(NC(=O)/C=C/c2ccccc2)c1,-10.4
17,COc1cc(/C=C2/SC(=Nc3ccccc3)NC2=O)ccc1OCc1ccccc1[N+](=O)[O-],7.5
18,Cc1cc(=O)oc2cc(OC(=O)Cc3ccccc3)ccc12,14.4
19,Cc1ccc(CNC(=O)CN2C(=O)c3ccccc3C2=O)cc1,5
20,COc1ccc(S(=O)(=O)N2CCN(Cc3ccccc3)CC2)cc1[N+](=O)[O-],-4.1
21,COc1ccc(CCNC(=O)C(Cl)(Cl)Cl)cc1,3.4
22,CCn1c(CCCO)nc2ccccc21,-6.8

row,Structure (SMILES),displacement [%]
1,O=C(Cc1ccc(Cl)cc1)Nc1ccc2c(c1)OCO2,15
2,O=C(Nc1ccccc1)Nc1ccc(S(=O)(=O)N2CCCCC2)cc1,-3.3
3,Cc1ccc(N(CC(=O)Nc2ccc(Br)cc2)S(C)(=O)=O)cc1Cl,-2.3
4,CCn1c(SCC(=O)OC)nc2sc3c(c2c1=O)CCC3,8.5
5,COc1ccc(/C=C/C(=O)Nc2nc(-c3ccc(Cl)cc3)cs2)cc1OC,2.2
6,CCCOC(=O)c1ccc(NC(=O)COc2ccc3ccccc3c2)cc1,12.1
7,CC(NC(=O)c1ccco1)C1COc2ccccc2O1 (stereo not given),4.6
8,CN(C(=O)c1cccs1)c1ccccc1C(=O)O,-1.3
9,CC1CCCN(C(=O)Cc2ccc(Cl)cc2)C1 (stereo not given),6.5
10,O=C(NC(=S)Nc1ccc2oc(-c3ccc(Br)cc3)nc2c1)c1ccco1,11.6
11,CC(=O)Nc1nc2ccccc2n1CCCN(C)C,-5.5
12,CC1=C(C(=O)OC2CCCC2)C(c2ccc(Cl)cc2)NC(=O)N1C (stereo not given),-3.5
13,COC(=O)c1ccc(/C=C2\C(=O)NC(=S)N(c3cccc(Br)c3)C2=O)cc1,13.8
14,O=C(O)c1c(-c2ccccc2)oc2ccc(OCc3ccccc3F)cc12,11.7
15,O=C(COc1ccccc1)N1CCNCC1,-5.1
16,O=C(Nc1ccccc1Cl)c1ccccc1[N+](=O)[O-],12.1
17,O=C(O)CC1S/C(=N/N=C/c2ccc([N+](=O)[O-])cc2)N(c2ccc(O)cc2)C1=O (stereo not given),13.4
18,NS(=O)(=O)c1ccc(CNC(=O)c2ccc(Cl)cc2)cc1,-7.2
19,O=C(CCCN1C(=O)/C(=C/c2ccc(F)cc2)SC1=S)Nc1ccc(C(=O)O)cc1,-15.3
20,CCOc1cc(C(=S)N2CCOCC2)ccc1OS(=O)(=O)c1ccc(C)cc1,11.2
21,CN1C2=NC(=O)/C(=C/c3ccc([N+](=O)[O-])o3)N2c2ccccc21,-7.1
22,CCCOP(=O)(OCCC)C(Nc1cccc(C(F)(F)F)c1)c1ccc(C)cc1 (stereo not given),14.3

row,Structure (SMILES),displacement [%]
1,COc1ccc(C(=O)Nc2ccccc2C(=O)NCCC(=O)Nc2ccccc2)cc1,11
2,CC1(C)Cc2ccccc2-c2nnc(-c3cccs3)n21,-8.6
3,O=C(O)c1ccc(-c2cccc(OC(F)(F)F)c2)o1,-0.6
4,O=Cc1cn(CCOc2ccc(Cl)cc2)c2ccccc12,-2
5,CC(=O)c1cc(-c2ccccc2)[nH]c1N1CCOCC1,-9.2
6,Cc1ccc(N2C(=O)NC(=O)/C(=C/c3ccc(OCC(=O)O)cc3)C2=O)cc1,-14.8
7,COC(=O)c1ccc(C(=O)Nc2cc(Cl)ccc2Cl)cc1NC(=O)C(C)Oc1ccccc1 (stereo not given),2.5
8,Cc1c(NC(=O)c2nn3c(c2Cl)NC(c2ccc(Cl)cc2)CC3C(F)(F)F)c(=O)n(-c2ccccc2)n1C (stereo not given),9.6
9,CN1CCN(C2CC(=O)N(c3ccc(Cl)c(Cl)c3)C2=O)CC1 (stereo not given),2.8
10,COc1ccccc1OCCOc1ccc(Br)cc1/C=N/n1cnnc1,15.6
11,Cc1ccc(C2C(=O)c3ccccc3C2=O)c(C)c1C,-9.2
12,Cc1ccc(NC(=S)NC(=O)/C=C/c2ccco2)c(Br)c1,-2.8
13,COc1ccc(NC(=O)COc2cccc(Cl)c2)c([N+](=O)[O-])c1,-5.5
14,O/N=C/c1cn(-c2ccccc2)nc1-c1ccc(Cl)cc1,-3.8
15,COC(=O)c1c(-c2ccccc2)csc1NC(=O)C1CC=CCC1C(=O)O (stereo not given),1
16,CC(=O)CC(=O)NCc1ccc(Cl)cc1,3.5
17,CCOc1ccc2nc(SC3CC(=O)N(c4cccc(OC)c4)C3=O)sc2c1 (stereo not given),10.2
18,CCCC(=O)NS(=O)(=O)c1ccc(NC(=O)c2ccccc2Cl)cc1,11.2
19,O=C(N/N=C/c1ccc(Cl)cc1Cl)C1CC(=O)N(c2ccc(F)cc2)C1 (stereo not given),-6.2
20,O=C(/C=C/c1ccccc1OCc1ccccc1)c1ccc(Cl)cc1,-1.9
21,COc1ccc(C2CC(=O)C3=C(C2)Nc2ccccc2NC3c2ccc(F)c(Br)c2)cc1 (stereo not given),5
22,COc1cc(CN2CCN(C(=O)c3cccc(Cl)c3)CC2)cc(OC)c1OC,-5

row,Structure (SMILES),displacement [%]
1,O=C(Cn1nnc(-c2ccccc2)n1)Nc1ccccc1[N+](=O)[O-],8.8
2,Cc1c(NC(=O)C(Cc2ccccc2)N2C(=O)c3ccccc3C2=O)c(=O)n(-c2ccccc2)n1C (stereo not given),9.4
3,CC(C)CC(NC(N)=O)c1ccccc1 (stereo not given),5.2
4,COc1cccc(C(=O)NC(NC(=S)Nc2ccccc2Cl)C(Cl)(Cl)Cl)c1 (stereo not given),13.2
5,O=C(COc1ccccc1Cl)NCCCN1CCOCC1,-2.6
6,O=C(O)c1ccc(/C=C2\SC(=S)N(C(Cc3ccccc3)C(=O)O)C2=O)cc1 (stereo not given),15
7,Cc1ccc(-c2csc(NC(=O)c3ccc(Cl)c(Cl)c3)n2)cc1,-3.6
8,COc1ccc(C2NC(=O)NC(C)=C2C(=O)Nc2cccc(Cl)c2)cc1 (stereo not given),11.4
9,Cc1ccc(C=C2C(=O)N(C)C(=O)N(C)C2=O)cc1,79.7
10,Cn1c(=O)c2c(nc(SCC(=O)O)n2C)n(C)c1=O,-1.5
11,O=C1N=C(N2CCCCC2)S/C1=C\c1ccccc1Cl,-4.2
12,CCOC(=O)/C=C(\C)Nc1cc(C)nn1-c1ccccc1,-9.5
13,CC(=O)c1cccc(NC(=O)/C(=C/c2cccnc2)NC(=O)c2cccc(Br)c2)c1,-7.6
14,COc1cc(/C=N/NS(=O)(=O)c2ccc(C)cc2)ccc1OC(=O)Nc1ccccc1,8
15,CC1(C)CC(=O)C/C(=N/NC(=O)c2ccccc2)C1,4.9
16,O=S(=O)(Nc1ccc(N2CCCCC2)cc1)c1cccc2cccnc12,-1.9
17,CC1(C(=O)NCc2cccnc2)CC2c3ccccc3C1c1ccccc12 (stereo not given),7.2
18,COc1cccc(NC(=O)CN(c2ccc(Cl)cc2)S(C)(=O)=O)c1,-17.7
19,COc1ccc(NC(=O)c2c(-c3ccccc3Cl)noc2C)cc1,8.5
20,Cc1cccc(N2C(=O)/C(=C/c3ccc(F)cc3)SC2=S)c1C,3
21,Cc1onc(-c2c(F)cccc2Cl)c1C(=O)N1CCOCC1,-7.9
22,Cc1cc2nc(-c3cc(NC(=O)c4cc5ccccc5o4)ccc3O)oc2cc1C,-16

row,Structure (SMILES),displacement [%]
1,Cc1ccc(Nc2nc3nonc3nc2N)c(C)c1,45.7
2,COc1ccc2c(=O)cc(C(F)(F)C(F)(F)C(F)(F)C(F)F)oc2c1,-1.2
3,CCOc1ccc(S(=O)(=O)Nc2ccc(NC(C)=O)cc2)cc1,5.2
4,Cc1cccc(N2CCN(C(=O)Nc3ccc(Cl)c(Cl)c3)CC2)c1C,-0.9
5,O=C(Nc1cc(C(F)(F)F)cc(C(F)(F)F)c1)c1ccc([N+](=O)[O-])cc1,-7.2
6,O=C1NN(c2cccc(Cl)c2)C(=O)/C1=C\C=C\c1cccc([N+](=O)[O-])c1,-1
7,CC(C)Cn1c(SCc2ccc(Br)cc2)nc2sc3c(c2c1=O)CC(C)(C)OC3,-6.8
8,CC1=C(C(=O)OCCc2ccccc2)C(c2cc([N+](=O)[O-])ccc2Cl)C2=C(CCCC2=O)N1 (stereo not given),-5.1
9,CC(C)(C)c1ccc(C(=O)N2N=C(c3ccc([N+](=O)[O-])cc3)CC2(O)C(F)(F)F)cc1 (stereo not given),2.9
10,Cc1ccc(OCC(=O)Nc2ccccc2C(F)(F)F)c(C)c1,-8.5
11,CCOc1ccccc1NC(=O)c1c(Cl)ccc(Cl)c1OC,1.3
12,COC(=O)C1=CN(Cc2cccs2)C=C(C(=O)OC)C1c1cc(OC)c(OC)c(OC)c1,5.3
13,O=C(O)c1cc2n(n1)C(C(F)(F)F)CC(c1ccc3c(c1)OCO3)N2 (stereo not given),7.9
14,C=CCN1C(=O)/C(=C\c2cccs2)SC1=S,6.7
15,CCOC(=O)/C(N=Nc1cc(C)ccc1OC)=C(/C)O,-1.5
16,COc1ccc(-n2c(O)c(C=Nc3ccc(C)cc3)c(=O)[nH]c2=O)cc1,1
17,COc1ccc(NC(=O)c2cnccn2)cc1,105
18,CCC(Oc1ccccc1)C(=O)N1CCN(c2ccccc2)CC1 (stereo not given),-1.6
19,COc1ccc(O)c(C2N(Cc3ccccc3O)CCN2Cc2ccccc2O)c1,-13.2
20,O=C(N=Nc1c(O)[nH]c2ccc([N+](=O)[O-])cc12)c1cccc(Br)c1,3.3
21,CCOC(=O)c1c[nH]c2c(ccc3ccccc32)c1=O,18.1
22,O=C(Nc1ccc2c(c1)OCO2)c1ccc(Cl)cc1[N+](=O)[O-],-4.5
